Test results: PMC13083723 (Patterns, 2026)
The campaign covered roughly 5,400 compounds. About 190 (3.5%) showed an effect of 50% or more. The list shows a part of the results.

tested on: Vero-E6; test: primary screen, phospholipidosis by LipidTOX staining; higher = more effect of the substance; conditions: 10 µM
Experimental: To measure drug-induced PLD in Vero-E6 cells, we used the HCS LipidTOX Red Phospholipidosis Detection Reagent (Invitrogen, #H34351), which is non-toxic to cell growth and remains well retained after aldehyde fixation. In this setup, compounds (at 10 μM concentration) and controls (amiodarone: 10 μM concentration; DMSO: 0.1 v/v %) were added to clear-bottom, 384-well plates (PhenoPlate 384-well, black, optically clear flat bottom, tissue-culture treated, Revvity #6057302) using the Echo Liquid Handler (Labcyte).

| SMILES | result_ITMP [%] |
| --- | --- |
| CCC1(c2ccc(N)cc2)CCC(=O)NC1=O (stereo not drawn) | -3.57 |
| Nc1nccc2c1ncn2[C@@H]1O[C@H](CO)C(O)C1O (stereo partly drawn) | 0.15 |
| Nc1ccc2cc3ccc(N)cc3nc2c1 | 15.2 |
| C#Cc1cccc2c1c(C(=O)c1ccc(Cn3c(C)nc4cnccc43)c(F)c1)cn2C(=O)N(C)C | 0.05 |
| CC(=O)OCC(=O)[C@@]1(O)CCC2C3CCC4=CC(=O)CC[C@]4(C)[C@@]3(F)[C@@H](O)C[C@@]21C (stereo partly drawn) | -0.98 |
| CC(=O)Nc1cccc(Nc2ncnc(N3CCC(OCc4ccc(OC(F)(F)F)cc4)CC3)n2)c1C | -3.81 |
| O=S1(=O)N[C@H]2CCCN2c2ccccc21 | -4.95 |
| CNC(=O)c1cnn(-c2nc(N)c3ncn([C@@H]4O[C@H](CO)[C@@H](O)[C@H]4O)c3n2)c1 | 0.96 |
| COc1ccc(C2CC(c3c(O)cc(C)oc3=O)=NCCS2)c(OC)c1 (stereo not drawn) | -1.35 |
| N#Cc1ccnc(N2C(=O)CC[C@H]2C(=O)N(c2cncc(F)c2)[C@H](C(=O)NC2CC(F)(F)C2)c2ccccc2Cl)c1 | -1.1 |
| CCC(=O)c1c(O)cc(O)cc1O | -6.66 |
| C=CC(=O)Nc1ccc2ncnc(Nc3cccc(Br)c3)c2c1 | 20.6 |
| CC1Cc2ccccc2N1NC(=O)c1ccc(Cl)c(S(N)(=O)=O)c1 (stereo not drawn) | -3.24 |
| CC(C)(C)[C@]1(O)CCN2C[C@H]3c4ccccc4CCc4cccc(c43)[C@@H]2C1 | 6.12 |
| O=C(O)c1cc2ccccc2s1 | -4.49 |
| CCCN1CCC[C@H](c2cccc(O)c2)C1 | 7.69 |
| CO/N=C(\C(=O)N[C@@H]1C(=O)N2C(C(=O)O)=C(Cn3ccc(=N)n3CCO)CS[C@H]12)c1csc(N)n1 | -5.46 |
| COc1cc(/C=C(\C#N)C(N)=O)cc(CSc2nc3ccccc3s2)c1O | -3.59 |
| O=C(O)c1ccc(CN2CCC(CN[C@@H]3C[C@H]3c3ccccc3)CC2)cc1 | -1.25 |
| CC(C)c1nnc(-c2ccc(-c3ccccc3)nc2)n1-c1cccc2nonc12 | -2.24 |
| CCOCC(O)COc1ccc(NC(=O)CC[S+](C)C)cc1 (stereo not drawn) | -1.75 |
| COc1ccc(Nc2ccn(-c3ccccc3)n2)cc1 | -5.34 |
| C[C@@H](N)[C@@H](O)c1ccccc1 | -1.41 |

| SMILES | result_ITMP [%] |
| --- | --- |
| CN1CCN(CCOc2cc(OC3CCOCC3)c3c(Nc4c(Cl)ccc5c4OCO5)ncnc3c2)CC1 | 58.5 |
| C[C@@H](N)c1ccc(C(=O)Nc2ccnc3[nH]ccc23)cc1 | -2.05 |
| CCN(C)C(=O)Oc1cccc([C@H](C)N(C)C)c1 | 1.78 |
| Nc1ccc(S(=O)(=O)Nc2ccnn2-c2ccccc2)cc1 | -1.2 |
| CCO[C@@H](Cc1ccc(OCCn2c(C)ccc2-c2ccc(SC)cc2)cc1)C(=O)O | -1.11 |
| CC(=O)N[C@H]1[C@H]([C@H](O)[C@H](O)CO)O[C@](O)(C(=O)O)C[C@@H]1O | -2.76 |
| C[C@@H]1O[C@@]2(CS1)CN1CCC2CC1.C[C@H]1O[C@]2(CS1)CN1CCC2CC1 | 15.1 |
| O=C(NCC1CN(c2ccc(N3CCOCC3=O)cc2)C(=O)O1)c1ccc(Cl)s1 (stereo not drawn) | -4.55 |
| N=C(N)S/C=C\C(=O)O | -8.63 |
| Cc1nnc(NS(=O)(=O)c2ccc(N)cc2)s1 | -4.31 |
| CC(C)C(C(=O)Nc1nccs1)c1ccc(Cl)cc1 (stereo not drawn) | -2.18 |
| COC(=O)N[C@H](C(=O)N1CCC[C@H]1C(=O)Nc1ccc([C@@H]2CC[C@@H](c3ccc(NC(=O)[C@@H]4CCCN4C(=O)[C@@H](NC(=O)OC)C(C)C)cc3)N2c2ccc(C(C)(C)C)cc2)cc1)C(C)C | 0.51 |
| NC(=O)CN1C=CCC(C(N)=O)=C1 | -5.03 |
| COc1cc(NS(C)(=O)=O)ccc1Nc1c2ccccc2nc2ccccc12 | 19.5 |
| CCn1c(N)c(C(=O)NC)c(=O)c2ccc(C#C[C@@](C)(O)COC)nc21 | -5.39 |
| CCN1CCC[C@H]1CNC(=O)c1c(OC)ccc(Br)c1OC | -1.75 |
| CN1[C@@H]2CC[C@H]1C[C@@H](OC(=O)c1c[nH]c3ccccc13)C2.CN1[C@@H]2CC[C@H]1C[C@H](OC(=O)c1c[nH]c3ccccc13)C2 | 19.1 |
| FC(F)c1nc2ccccc2n1-c1nc(N2CCOCC2)nc(N2CCOCC2)n1 | -0.79 |
| O=C1C2CC3CC1CC(O)(C3)C2 | -9.98 |
| C[C@H]1CN(C[C@H](Cc2ccccc2)C(=O)NCC(=O)O)CC[C@@]1(C)c1cccc(O)c1 | -1.66 |
| CC(C)[C@](O)(c1ccc2cc(OC(F)F)c(OC(F)F)cc2c1)c1c[nH]nn1 | 0.61 |
| c1cc2c(cc1C1CCCCC1)c1c3n2CCNC3CCC1 (stereo not drawn) | 84.2 |
